{
  "source": "paper PMC10726135",
  "note": "This is one part of the list. At the low end of the ranking the order means little. The protein was read in a cell extract, so binding may be indirect.",
  "data": [
    {"biological_target": "T1, HNF4alpha8 (COS-7 nuclear extract) (UniProt P41235-5)", "T1 sequence": "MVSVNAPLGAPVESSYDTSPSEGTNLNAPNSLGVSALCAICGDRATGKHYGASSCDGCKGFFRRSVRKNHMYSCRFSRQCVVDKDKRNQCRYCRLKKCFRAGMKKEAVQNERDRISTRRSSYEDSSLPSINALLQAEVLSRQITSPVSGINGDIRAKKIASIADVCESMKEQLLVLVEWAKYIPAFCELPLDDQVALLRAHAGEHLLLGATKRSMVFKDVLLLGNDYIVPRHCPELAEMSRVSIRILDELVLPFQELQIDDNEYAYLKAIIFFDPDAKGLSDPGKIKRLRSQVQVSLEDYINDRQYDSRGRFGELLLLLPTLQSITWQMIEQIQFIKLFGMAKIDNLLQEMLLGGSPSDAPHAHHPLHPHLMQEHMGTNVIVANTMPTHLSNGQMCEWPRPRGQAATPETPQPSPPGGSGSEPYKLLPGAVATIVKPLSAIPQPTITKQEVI", "assay": "protein-binding microarray", "settings": "COS-7 nuclear extract on double-stranded Agilent 4x180k PBM; binding buffer, salt, pH and temperature not given; high values mean tight binding; double strand, one strand shown; sequences stand for … in …GCCTAGGGAGATTAGAGTATCGGTCGA", "values": [
      {"sequence": "GAGTCCAAACTGGGACCTGTGACACTCTGC", "binding signal (log2 normalized intensity)": 0.644},
      {"sequence": "AGATCCTCTAAATTCCAGGGCTGGGTCCAG", "binding signal (log2 normalized intensity)": 2.8},
      {"sequence": "TTGGGCCAGTCGCTTAACCTCTTGATCCTG", "binding signal (log2 normalized intensity)": 2.24},
      {"sequence": "GTTCATTTGCACTTGTTTTTTCAGGTGTTG", "binding signal (log2 normalized intensity)": 2.04},
      {"sequence": "GCCTCCCTCCTTCCGCGGACGTGTTCCCAC", "binding signal (log2 normalized intensity)": 1.4},
      {"sequence": "GCCCAGATAAGAACTGCAAGGCTAGAGATT", "binding signal (log2 normalized intensity)": -1.32},
      {"sequence": "TTAAGATTTGACCCTTGGCCAGGTGCAGTG", "binding signal (log2 normalized intensity)": 5.41},
      {"sequence": "CTTTGGCTCCAGAGTCCACATTCTTAAACG", "binding signal (log2 normalized intensity)": 2.75},
      {"sequence": "GGAGGAGGTCAAAGTGCAACTACAAGGAGC", "binding signal (log2 normalized intensity)": 5.67},
      {"sequence": "CTGAGACAACACTCAGGATACCTAAGCCCC", "binding signal (log2 normalized intensity)": 1.33},
      {"sequence": "TCCATCTAGCAGCCCCAACCCACTGTTGCC", "binding signal (log2 normalized intensity)": 2.76},
      {"sequence": "GAGGAGCTAACAGTAAAACTGAGATCTAAG", "binding signal (log2 normalized intensity)": -1.23},
      {"sequence": "TGGGCCCACAGATGATCAAAGGTCAGTCTT", "binding signal (log2 normalized intensity)": 7.25},
      {"sequence": "TAAGGTTCCAGCAAAGAGATTAGGACACAG", "binding signal (log2 normalized intensity)": -1.33},
      {"sequence": "AGCATGCGGTAAAGAAGCCAGCCAAATCCC", "binding signal (log2 normalized intensity)": -1.32},
      {"sequence": "CTTCTCATACTACTGTACTTTGCTCTCAGC", "binding signal (log2 normalized intensity)": 5.32},
      {"sequence": "ACCAGGATAGGGAGGGGTAAGGGTGGGGGT", "binding signal (log2 normalized intensity)": -1.22},
      {"sequence": "TTCCCCCTCCCTGGACTCCTGGGACTTATT", "binding signal (log2 normalized intensity)": 3.55},
      {"sequence": "CATTCAAAGCCTAGGCTCCAGGGCACTGCC", "binding signal (log2 normalized intensity)": -1.43},
      {"sequence": "AGTGGTTTCAAGGTGACCCCACGGAGCTGC", "binding signal (log2 normalized intensity)": 3},
      {"sequence": "GGGAAGCAGTGAGGGTGGGTTCAAAGGTCA", "binding signal (log2 normalized intensity)": 8.86},
      {"sequence": "GAAATTCTGGCCAACCAGCACTTCTGGAGG", "binding signal (log2 normalized intensity)": -1.32},
      {"sequence": "AGAAATAGCATCACGAAAGGCAACATCTTG", "binding signal (log2 normalized intensity)": -1.34},
      {"sequence": "TCCGGCTGGCCTTCCCTCCTCCCTCCGTCT", "binding signal (log2 normalized intensity)": 2.13},
      {"sequence": "TCGCGAGAGAACTGAAAAAGGGGACCGGCC", "binding signal (log2 normalized intensity)": -1.24},
      {"sequence": "TATTTGGAACCAAGAGCAGATTTGTTTGCT", "binding signal (log2 normalized intensity)": -1.29},
      {"sequence": "CTGAAGTCTCAAAGTTCACCACTTTTGCAA", "binding signal (log2 normalized intensity)": 2.83},
      {"sequence": "GAATGTTGAACCTTTCTTTGTCTTTGCAAT", "binding signal (log2 normalized intensity)": 1.98},
      {"sequence": "AGATTCGGTGAGGGATTGTTTAGGTACAAA", "binding signal (log2 normalized intensity)": 1.25},
      {"sequence": "GAGATGGAATCTTGCCCTGTCGCCCAGGCT", "binding signal (log2 normalized intensity)": 0.395},
      {"sequence": "AGAATAAACGCTGAAGTCTCAAAGTTCACC", "binding signal (log2 normalized intensity)": 4.43},
      {"sequence": "ATGTACATGTGCAAAAGCACCCAAGGCTCT", "binding signal (log2 normalized intensity)": -1.36},
      {"sequence": "ATTTTTATGTGGCATTTCAAAGGAGGAGGC", "binding signal (log2 normalized intensity)": -1.28},
      {"sequence": "CCCACCTATGTCCTTATCCTCATTGTGTGC", "binding signal (log2 normalized intensity)": 2.11},
      {"sequence": "CCCCAAATCCCCTTCAAGTCTGAGATGAAG", "binding signal (log2 normalized intensity)": 1.56},
      {"sequence": "TGGTCCCAGGGGAGGTTATCTTGGGGCTAA", "binding signal (log2 normalized intensity)": -1.13},
      {"sequence": "TCTGACTCGGGTGTTCACAGGTGACCTCTG", "binding signal (log2 normalized intensity)": 5.12},
      {"sequence": "ATAATAAATAAGGGAGGTAAAAGTCCAACA", "binding signal (log2 normalized intensity)": 3.6},
      {"sequence": "GTAAACATTTGCCTTTAGGGCCCCCTGTGA", "binding signal (log2 normalized intensity)": 2.25},
      {"sequence": "TGGGCCAAAGGTCATACCTGTCTAGGTGGA", "binding signal (log2 normalized intensity)": 4.74},
      {"sequence": "GTTCTTGCTACCTACTCATTCATATCACCT", "binding signal (log2 normalized intensity)": -0.91},
      {"sequence": "GGGCATTAGGTGGACAGGGGTGTGTTGACC", "binding signal (log2 normalized intensity)": 3.03},
      {"sequence": "CCTGTCTGACAGGATGAATTTATTGCCCTC", "binding signal (log2 normalized intensity)": 3.21},
      {"sequence": "TCAGAGGCCTGAAGGCCCCCAGGTAGCTGC", "binding signal (log2 normalized intensity)": 2.04},
      {"sequence": "GGACAGGTGCGACGAACGGGTAAATCCGGT", "binding signal (log2 normalized intensity)": -1.35},
      {"sequence": "TAATCAACTGCAGGAGTCGGGAGGTAGGGG", "binding signal (log2 normalized intensity)": -1.28},
      {"sequence": "ACCAGACAGCACCTCTCTGATGCCATGATA", "binding signal (log2 normalized intensity)": -1.33},
      {"sequence": "TATATGAGTGTATAGTGGCACTGTTATGAC", "binding signal (log2 normalized intensity)": 1.12},
      {"sequence": "AGACTTTGCACCAAGGAGACACCCCTGCAG", "binding signal (log2 normalized intensity)": 2.39},
      {"sequence": "ATTAGAACAAACGACGCTCCTATCATCCCT", "binding signal (log2 normalized intensity)": -1.01},
      {"sequence": "ACATCACCTACCTGACTCCTTAGGGATTTG", "binding signal (log2 normalized intensity)": -1.32},
      {"sequence": "GGAATTCCTCCTCCTGTTTGTATTCCTTGT", "binding signal (log2 normalized intensity)": 1.01},
      {"sequence": "CTGTTGACCTTGAAATGCCATGTGATCTCT", "binding signal (log2 normalized intensity)": 2.81},
      {"sequence": "TGAAAACAGGGCAAGGAACGGAATGTGTGA", "binding signal (log2 normalized intensity)": -0.694},
      {"sequence": "CGGCGGCGCAGACGGCGGATCCTCCCAGCC", "binding signal (log2 normalized intensity)": -1.32},
      {"sequence": "AGAAATGCCAAGATCAGGGCTAAGATCAGA", "binding signal (log2 normalized intensity)": -1.31},
      {"sequence": "AGGGTCAGAGGACAGGCTAATGAGATAATG", "binding signal (log2 normalized intensity)": -1.19},
      {"sequence": "TGTTTCTTATCACACAGTCAACATGTCATT", "binding signal (log2 normalized intensity)": 0.384},
      {"sequence": "AGATACGCCTGAACTTTGATCAGCATTCAA", "binding signal (log2 normalized intensity)": 5.88},
      {"sequence": "TAATCTCAGATATGCTAATTAACCCTCCTG", "binding signal (log2 normalized intensity)": 1.45},
      {"sequence": "TGAAGCCGTCCTGTCCTGGACTTTCCTTTG", "binding signal (log2 normalized intensity)": 3.43},
      {"sequence": "ACAAGATCAATCAATTTACCTCTGCTCCCC", "binding signal (log2 normalized intensity)": 2.21},
      {"sequence": "TTAGAGAAAAAGCCCAAGAAACTTCAAAGA", "binding signal (log2 normalized intensity)": -1.34},
      {"sequence": "CCCCTATGTCTAGGACTCTAGTGTTCTCTT", "binding signal (log2 normalized intensity)": 1.55},
      {"sequence": "GACGCGGTCTCAGTTAACGGGGACGCTTTA", "binding signal (log2 normalized intensity)": -1.28},
      {"sequence": "GTGCTTGTCTGACTGCTGCCAAAGGTAAAA", "binding signal (log2 normalized intensity)": 1.34},
      {"sequence": "CTAAGATAACCATCAAATCCTCGGAAGACG", "binding signal (log2 normalized intensity)": -1.35},
      {"sequence": "AATCCTCGGAAGACGCACCTCTGCATACTT", "binding signal (log2 normalized intensity)": -1.38},
      {"sequence": "GATGAAAGGAGCTTGGGAAGACAGATGTGA", "binding signal (log2 normalized intensity)": -1.16},
      {"sequence": "CTCCTGTTTGTATTCCTTGTCCTTGACCCT", "binding signal (log2 normalized intensity)": 4.96},
      {"sequence": "CCCCCACCTCTTTTCCCAGACGTGGTGGAT", "binding signal (log2 normalized intensity)": 3.87},
      {"sequence": "AGGAGCTTGTAAGCCACAGTACAAAGGTGA", "binding signal (log2 normalized intensity)": 4.67}
    ]}
  ]
}
